Results as given in patent US10561646B2, “EGFR inhibitor and pharmaceutically acceptable salt and polymorph thereof, and use thereof” (SHANGHAI HAIYAN PHARMACEUTICAL TECHNOLOGY CO., LTD., priority 2015, dated 2020).

Molecular target: EGFR T790M/L858R kinase (Homo sapiens, UniProt P00533, L858R/T790M)

C=CC(=O)Nc1cc(Nc2ncc(F)c(-c3cnn(C)c3)n2)c(OC)cc1N1CCC(N(C)C)CC1 [the free base of compound of formula X, N-(2-(4-(dimethylamino)piperidin-1-yl)-5-(5-fluoro-4-(1-methyl-1H-pyrazol-4-yl)pyrimidin-2-ylamino)-4-methoxyphenyl)acrylamide]
inhibitory activities against EGFR mutant enzyme (T790M/L858R), in words: strong inhibitory activities
